Results published in PubChem BioAssay AID485294 (National Center for Advancing Translational Sciences (NCATS), 2010).
Out of some 370,000 compounds screened, about 150 (0.041%) were called active. This list was built around the results that the source calls inconclusive (neither active nor inactive); the mix of calls is not that of the screen. Calls come from the whole dose curve; as a rule, active = well fitted inhibition curve with a large enough effect; inconclusive = small, poorly fitted or top-dose-only effect; inactive = flat fitted curve, though single readings scatter. No potency is given beside an inconclusive call; the fits are too rough.
Note: nearly all actives have a fitted effect of over 25% in size.
Potency is the fitted concentration of half-maximal effect; tags give direction and shape of the fitted curve.

What follows are molecules tested against Beta-lactamase (Escherichia coli (strain K12)) (UniProt P00811) (assay: qHTS Inhibitors of AmpC Beta-Lactamase (assay with detergent)). Conditions: AmpC hydrolysis of nitrocefin, absorbance 480 nm, 0.01% Triton; series mostly up to 114 µM.
Sequence of UniProt P00811 (P00811 whole entry, looked up): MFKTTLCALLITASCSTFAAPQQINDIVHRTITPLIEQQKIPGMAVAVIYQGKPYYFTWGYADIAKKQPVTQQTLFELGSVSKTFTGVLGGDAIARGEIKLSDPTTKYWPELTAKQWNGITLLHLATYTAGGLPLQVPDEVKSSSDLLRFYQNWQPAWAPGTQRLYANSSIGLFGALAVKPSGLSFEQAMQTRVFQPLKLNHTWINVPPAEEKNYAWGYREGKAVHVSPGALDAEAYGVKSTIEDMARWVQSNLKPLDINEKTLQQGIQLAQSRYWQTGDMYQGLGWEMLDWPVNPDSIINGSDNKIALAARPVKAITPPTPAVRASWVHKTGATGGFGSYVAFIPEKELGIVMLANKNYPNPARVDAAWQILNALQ
Outline: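 AmpC (5.3 nM in the dispensed reagent) in 20 mM phosphate pH 7.0 with 0.01% (detergent screen) or 0.0001% Triton X-100 was preincubated with compounds for 15 min at room temperature. Nitrocefin was then added from an 800 uM solution, and hydrolysis was followed at 480 nm.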
`CCOC(=O)C1CCN(S(=O)(=O)c2ccc3c(c2)N(C(C)=O)CCO3)CC1` was tested, and the Potency was inconclusive [inhibitor, full curve, poor fit].
For `COc1ccccc1C(=O)NCCc1nc2ccccc2n1C`, the Potency was inconclusive [inhibitor, full curve].
For `Cc1cc(C)cc(NC(=O)CCc2c(C)nn(-c3ccc(N4CCCC4)nn3)c2C)c1`, the Potency was “inactive”.
With `CCc1ccc2[nH]c3nc(SCc4nnc(-c5ccc(C)cc5)o4)nnc3c2c1` the Potency was inconclusive [inhibitor, partial curve, poor fit].
In the case of `COc1ccc(OCC(=O)N/N=C(\C)CC(=O)Nc2ccc(NC(C)=O)cc2)cc1`, the Potency is reported as inconclusive [inhibitor, full curve, poor fit].
`Cc1ccc(-n2c(SCC(=O)NCc3ccc(F)cc3)nc3c([nH]c4ccccc43)c2=O)cc1` was tested, and the Potency was “inactive”.
With `O=C(NCCc1ccccc1)C1CCN(S(=O)(=O)N2CCCCC2)CC1` the Potency was inconclusive [inhibitor, single point].
`CCn1c(SCC(=O)NCc2cccs2)nnc1-c1ccco1` was tested, and the Potency was inconclusive [inhibitor, full curve, poor fit].
In the case of `O=[N+]([O-])c1ccc(C2C3C(c4ccccc4)=NC4(CCCC4)N32)cc1` (stereo not drawn), the Potency is reported as inconclusive [inhibitor, partial curve, poor fit].
In the case of `CCOc1ccc(-c2cc(OC(=O)c3ccccc3)c3c(C)oc(C)c3c(=O)c2)cc1`, the Potency is reported as “inactive”.
For `Cn1nnc2c(N3CCN(c4ccccc4F)CC3)ncnc21`, the Potency was “inactive”.
For `O=C(O)c1ccccc1C(=O)NCC(O)COCC1CC=CCC1` (stereo not drawn), the Potency was inconclusive [inhibitor, full curve, poor fit].
For `Cn1ccnc1SCc1cc(=O)[nH]c2ccccc12`, the Potency was inconclusive [inhibitor, full curve, poor fit].
With `Cc1noc(NS(=O)(=O)c2ccc(NC(=O)c3cnc4scc(C)n4c3=O)cc2)c1C` the Potency was inconclusive [inhibitor, full curve].
In the case of `COC(=O)c1cccc(N(C(=O)c2ccco2)C(C(=O)NC2CCCC2)c2ccc(N3CCOCC3)cc2)c1` (stereo not drawn), the Potency is reported as “inactive”.
With `CCCN(Cc1ccccc1)C(=S)Nc1ccc(OCC)cc1` the Potency was inconclusive [inhibitor, full curve, poor fit].
`CC(=O)CSc1nnc(-c2ccncc2)n1C` was tested, and the Potency was inconclusive [inhibitor, partial curve].
`COc1ccccc1-n1c(O)c(C=NC2CC2)c(=O)[nH]c1=O` was tested, and the Potency was inconclusive [inhibitor, full curve, poor fit].
In the case of `O=C(Nc1ccc2c(c1)OCO2)c1noc2c1CCCCC2`, the Potency is reported as inconclusive [inhibitor, full curve].
`C=CCn1c(SCC(=O)Nc2ccc3c(c2)OCCO3)nnc1-c1ccco1` was tested, and the Potency was inconclusive [inhibitor, partial curve, poor fit].
With `NC(Cc1ccc(O)c([N+](=O)[O-])c1)C(=O)O` (stereo not drawn) the Potency was “inactive”.
`COC(=O)C1C(=O)C2=C(CC1C)NC(C)=C(C(=O)OC1CCCC1)C2c1ccc(N(C)C)cc1` (stereo not drawn) was tested, and the Potency was “inactive”.
In the case of `CN1CCc2nc(SCC(=O)OC(C)(C)C)c(C#N)cc2C1`, the Potency is reported as inconclusive [inhibitor, partial curve, poor fit].
For `Cc1ccc2oc(C(=O)N3CCCCCC3)c(C)c2c1`, the Potency was “inactive”.
In the case of `O=C(CSc1ccccc1)NCCc1ccccc1`, the Potency is reported as “inactive”.
For `O=c1oc2ccccc2cc1-c1csc(Nc2nc3c(F)cccc3s2)n1`, the Potency was inconclusive [inhibitor, full curve, poor fit].
With `CC(=O)C1=C(C)N(Cc2ccccc2)C(=O)N[C@H]1CCc1ccccc1` the Potency was “inactive”.
With `CCN1C(=O)C(CC(=O)Nc2ccc(OC)cc2)N(CCCN2CCN(c3ccc(OC)cc3)CC2)C1=S` (stereo not drawn) the Potency was inconclusive [inhibitor, partial curve].
`COc1cccc(C(=O)Nc2ccccc2N2CCOCC2)c1` was tested, and the Potency was inconclusive [inhibitor, single point].
With `CCOC(=O)CCc1c(C)c2ccc(OC3CCCCC3=O)c(C)c2oc1=O` (stereo not drawn) the Potency was inconclusive [inhibitor, full curve, poor fit].
`Cn1ccc2cc(S(=O)(=O)N3CCC(C(=O)NCCc4ccccc4)CC3)ccc21` was tested, and the Potency was “inactive”.
For `CNC(=S)NN(c1ccccc1)c1ccccc1`, the Potency was inconclusive [inhibitor, full curve, poor fit].
With `CCOc1ccc(C2c3c(oc4ccccc4c3=O)C(=O)N2CCCN2CCOCC2)cc1OCC` (stereo not drawn) the Potency was inconclusive [inhibitor, partial curve, poor fit].
`O=C(CSc1ccccc1)Nc1nnc(COc2ccc(Cl)cc2)s1` was tested, and the Potency was inconclusive [inhibitor, full curve, poor fit].
In the case of `NNc1nnc(-c2ccccc2)c(-c2ccccc2)n1`, the Potency is reported as inconclusive [inhibitor, full curve].
In the case of `O=C(OCC(=O)C12CC3CC(CC(C3)C1)C2)c1ccc(O)cc1O`, the Potency is reported as inconclusive [inhibitor, partial curve, poor fit].
In the case of `CC1CCN(CCCn2c(=S)[nH]c3c(sc4ccccc43)c2=O)CC1`, the Potency is reported as inconclusive [inhibitor, single point].
`CCCCC(=O)/C=C/n1c(=S)oc2ccccc21` was tested, and the Potency was “inactive”.
With `C=CCNC(=S)NNc1ncnc2sc3c(c12)CC(C)(C)OC3` the Potency was inconclusive [inhibitor, full curve, poor fit].
`COc1ccc(-n2nnnc2SCC(=O)c2ccc(O)c(O)c2)cc1` was tested, and the Potency was inconclusive [inhibitor, single point].
`O=C(COc1ccccc1F)Nc1ccc(-c2nc3ccccc3s2)cc1` was tested, and the Potency was inconclusive [inhibitor, full curve].
With `Cc1ccc(C)c(N2C(=O)N(Cc3cc(=O)n4ccccc4n3)c3ccccc3S2(=O)=O)c1` the Potency was “inactive”.
With `Cc1nn(C(C)C(=O)NCCCN(Cc2ccccc2)C(C)C)c(=O)c2c1sc1ccccc12` (stereo not drawn) the Potency was inconclusive [inhibitor, full curve].
